Here are results for 86 molecules from ChEMBL document CHEMBL4888484, “Replenishing the malaria drug discovery pipeline: Screening and hit evaluation of the MMV Hit Generation Library 1 (HGL1) against asexual blood stage Plasmodium falciparum ,using a nano luciferase reporter read-out” (2022).

About 540 (0.36%) of roughly 150,000 compounds showed an effect of 50% or more. This is one part of the list.

The subject of the assay is Plasmodium falciparum. Put plainly: Primary screen in NF54 nanoGlo assay, in single point, at 2uM, 72h; a lower Z score goes with more inhibition. Format: functional, Erythrocyte. The settings on record: timepoint 72 hour.
Consider `COc1ccc2c(C)nc(N3CCC(CCN4CCCC4)CC3)nc2c1`, for which the “% Inhibition” value is -6% and the Z score was 0.72.
For `C[C@H]1CN(Cc2c(F)cncc2F)CC(=O)N1` the same measures were 4% and -0.42.
Regarding `CN(Cc1nccn1C)c1ncnc2sc(-c3ccccc3)cc12`, the “% Inhibition” value is given as -10% and the Z score came out at 1.47.
Taken in the same sequence, the figures for `CCCC[C@H](CC)CNC(=O)c1cncn1-c1ccc(-c2c(OC)cccc2OC)cc1` were -16% and 1.58.
For `O=C(CCc1ccc(F)c(F)c1)N1C[C@@H](CN2CCCCC2)[C@@H](CO)C1` the same measures were -10% and 1.64.
Taken in the same sequence, the figures for `Cc1nc(CC(=O)N(C)CC(C)(CO)CO)c(C)s1` were -6% and 0.71.
For the molecule `Cc1ccc([C@H](CNC(=O)c2ccc(Cl)cc2)N2CCC(C)CC2)o1`, the “% Inhibition” value was -8% and the Z score is reported as 1.38.
For `CCc1cccc(NC(=O)Cn2nc(N3CCC(C)CC3)c3ccccc3c2=O)c1` the same measures were -12% and 1.85.
Taken in the same sequence, the figures for `O=C(CCn1cnnn1)N1C[C@@H]2CC[C@H]1CN(Cc1ccc(F)cc1)C2` were 3% and -0.41.
Taken in the same sequence, the figures for `CCOC(=O)[C@H]1CCCN(C(=O)c2coc(CN(Cc3cccc(C)c3)Cc3ccc4c(c3)OCO4)n2)C1` were -1% and 0.08.
As to `CCn1cnnc1NC(=O)c1cc(C)sn1`, the “% Inhibition” value is given as 1% and the Z score is given as -0.12.
As to `COC1CCN(CCCOc2cccc(C#N)c2)C(CNC(=O)OC(C)(C)C)C1` (configuration not stated), the “% Inhibition” value was -11% and the Z score is 0.96.
Consider `O=C1NCCC[C@@H]1Nc1ccc(C(F)(F)F)nn1`, for which the “% Inhibition” value is 30% and the Z score is on record as -4.41.
For `O=C([C@@H]1CCc2ccccc21)N1CCC(c2nccn2CC2CC2)CC1` the same measures were 1% and -0.18.
For `O=C(N[C@H]1[C@H](O)[C@H](O)C[C@@H]1c1ccncc1)c1ccccn1` the same measures were 9% and -1.1.
For `CCn1cc(CN[C@@H](C)c2cnc(N(C)C3CCCCC3)nc2C)cn1` the same measures were -4% and 0.57.
For `O=C(c1cc(Cn2cnc3ccccc32)on1)N1C[C@H]2CCC[C@@]2(CO)C1`, the “% Inhibition” value is on record as -2% and the Z score was found to be 0.26.
As to `O=C(CC(F)(F)F)N1CCC[C@H](Oc2ccncn2)C1`, the “% Inhibition” value worked out at 2% and the Z score was -0.25.
Taken in the same sequence, the figures for `C[C@@H](CN(C)c1ncc(C(F)(F)F)s1)C(=O)O` were -10% and 1.23.
For `CCc1ncc(CN2CCC[C@@]2(C)C(=O)O)cn1` the same measures were -11% and 1.37.
Taken in the same sequence, the figures for `CC[C@H](NCC#N)c1ccccc1OC(F)F` were -8% and 1.14.
Turning to `Cn1nccc1[C@@H]1CCCN1Cc1nn(C)c(=O)[nH]1`, the “% Inhibition” value is -18% and the Z score came out at 2.21.
Take `O=C(NC1(C(=O)O)CCCCC1)C1=NN(c2ccccc2)C(=O)CC1`: the “% Inhibition” value was -16% and the Z score stood at 1.77.
Taken in the same sequence, the figures for `COCCn1ccn2nc(-c3ccc(F)cc3)c(CO)c2c1=O` were -16% and 1.81.
As to `CCCN(C)C(=O)c1cc(-c2ccc(C3CCCCC3)cc2)on1`, the “% Inhibition” value was found to be 3% and the Z score is reported as -0.31.
Taken in the same sequence, the figures for `CC(=Cc1ccc(OCC(=O)O)c(Br)c1)c1cnccn1` were 8% and -1.
With `COCCn1cc(CNC[C@H](C)C#N)cn1`, the “% Inhibition” value worked out at 41% and the Z score is -3.48.
In the case of `CC1=C(c2ccc(Cl)cc2)S(=O)(=O)N=C1N1CCCCC1`, the “% Inhibition” value is listed as -7% and the Z score was 1.02.
For `COCc1nn(C)c2c1CN(C(=O)c1ccc3ccccc3n1)CC2` the same measures were -11% and 1.26.
Taken in the same sequence, the figures for `CN1CCN(CC(=O)NCCC2CCCCC2)S1(=O)=O` were -4% and 0.45.
For `Cn1nc(C(=O)N(Cc2cccs2)C2CCCC2)c2c1CCOC2` the same measures were -9% and 1.14.
For the molecule `Cc1cc(N2CCN(C(=O)c3ccco3)CC2)nc2nnc(C)n12`, the “% Inhibition” value is -17% and the Z score was found to be 2.19.
Turning to `Cc1c(C(=O)NCc2ccc(OC(C)C)cc2)cccc1-n1nnc2cccnc21`, the “% Inhibition” value was -13% and the Z score was determined as 2.49.
Taken in the same sequence, the figures for `CN(Cc1cc(C2CC2)[nH]n1)Cc1ccc(-c2cc[nH]n2)s1` were -3% and 0.53.
As for `Cn1cc(CN(Cc2ccccc2C(F)(F)F)C2CC2)cn1`, the “% Inhibition” value was -3% and the Z score is 0.65.
For `CCn1c(NCc2cncn2C)nc2ccc(Br)cc21` the same measures were -1% and 0.12.
For `CC(C)c1nc(CCNC(=O)CC2CCCCC2C)n(C)n1` (configuration not stated) the same measures were -7% and 1.16.
Taken in the same sequence, the figures for `O=C(NCCc1nc(-c2cccs2)c[nH]1)c1ccccc1` were 1% and -0.1.
Regarding `CCC[C@H](NC(=O)N1CCC2(CC1)C(=O)N(C)C(=O)N2C)c1nccn1C`, the “% Inhibition” value was -1% and the Z score turned out to be 0.08.
For the molecule `c1cnc2nc(-c3ccc4c(c3)OCO4)oc2c1`, the “% Inhibition” value is -5% and the Z score stood at 0.71.
Taken in the same sequence, the figures for `O=C(c1ccsc1)N1CCCn2cc(-c3ccc4c(c3)OCO4)nc21` were -6% and 1.
Taken in the same sequence, the figures for `CCn1c(=O)n([C@@H]2CCN(C(=O)Cc3ccc(OC)cc3)C2)c2ncccc21` were 5% and -0.88.
Taken in the same sequence, the figures for `Cc1cc(C)c2ccc(C(=O)N3C[C@H]4CC[C@@H](C3)N(CC3CC3)C4)cc2n1` were -13% and 2.4.
As to `Cc1cccc2[nH]cc(CCC(=O)NC[C@H]3CCN(C)C(=O)C3)c12`, the “% Inhibition” value is listed as 2% and the Z score is listed as -0.3.
For `COc1cccc(C[C@H](NC(=O)C(=O)Nc2cc(C)nn2C)C2CC2)c1` the same measures were -2% and 0.45.
Taken in the same sequence, the figures for `Cc1sc(Cn2ccc(=O)[nH]c2=O)nc1C(F)(F)F` were 0% and 0.04.
Taken in the same sequence, the figures for `O=C(Cc1csc(-c2ccoc2)n1)NC[C@H](O)C1CCCCC1` were -2% and 0.22.
As for `O=C(c1cccc(-n2cccn2)n1)N(CC1CC1)c1cccnc1`, the “% Inhibition” value was 5% and the Z score was -1.03.
As for `CC(C)[C@H](CNC(=O)CCCc1ccc2c(c1)CC(=O)N2)Cc1ccccc1`, the “% Inhibition” value was -8% and the Z score is on record as 1.01.
As for `CCn1cnnc1CNC(=O)[C@@]1(C)CC1(Cl)Cl`, the “% Inhibition” value was -2% and the Z score is recorded as 0.19.
Regarding `Cc1cccc(-c2ncc(C(=O)N(C)C3CCCCC3)c(N3CCN(c4ccccc4F)CC3)n2)c1`, the “% Inhibition” value is recorded as -13% and the Z score was determined as 2.18.
As for `COC[C@@H]1CN(c2cnccn2)C[C@H]1C(=O)NCc1ccncc1`, the “% Inhibition” value is listed as -12% and the Z score worked out at 1.75.
Taken in the same sequence, the figures for `O=C(Nc1c(F)cc(Cl)cc1F)C(=O)N1CCOC[C@H]1C1CC1` were 7% and -0.71.
For `O=S(=O)(NC1(c2ccc3c(c2)OCCO3)CC1)c1ccoc1` the same measures were -19% and 1.89.
As for `CCCOc1ccc(-c2nc(C#N)c(N3CCCCCC3)o2)cc1`, the “% Inhibition” value was -5% and the Z score came out at 0.98.
Take `COc1ccncc1CNC(=O)c1cc(C)ccc1-n1ccnc1`: the “% Inhibition” value is on record as -45% and the Z score came out at 5.23.
Taken in the same sequence, the figures for `CCn1cnnc1-c1nn(C)c2c1CN(C(=O)c1n[nH]c(=O)c3ccccc13)CC2` were -5% and 0.72.
As for `Cc1nc([C@H](C)NCc2c(Cl)cncc2Cl)n[nH]1`, the “% Inhibition” value is listed as 5% and the Z score is -0.64.
For `Cc1cc(CS(=O)(=O)NC2CC(O)C23CCC3)no1` (configuration not stated) the same measures were -9% and 0.98.
For `CN(C(=O)C1CCCCC1)C1CCCC1` the same measures were 0% and 0.05.
Regarding `CCCc1cc(C(=O)N2CC[C@H](c3sccc3C)[C@@H](O)C2)no1`, the “% Inhibition” value was -12% and the Z score is listed as 1.07.
For `CCc1cc([C@@H]2CCCN2C(=O)Nc2ccc(Br)cc2F)on1` the same measures were -8% and 1.07.
Taken in the same sequence, the figures for `Cc1cccc(OCc2cncs2)n1` were -1% and 0.17.
Take `CCC(CC)[C@H](NC(=O)c1nnn(C2CCNCC2)c1C)c1ccccc1`: the “% Inhibition” value is given as 12% and the Z score is listed as -1.44.
For `CCCOC1CCCN(C(=O)[C@@H](N)CC(C)C)CC1` (some centres not stated) the same measures were -6% and 0.88.
`CC1(C)C[C@H](O)c2c(OCc3nccs3)cccc2O1`: the “% Inhibition” value is -8% and the Z score stood at 0.98.
For `O=C(O)C1CCC(CNC(=O)[C@H](Cc2c[nH]c3ccccc23)n2c(=O)[nH]c3ccccc3c2=O)CC1` (some centres not stated) the same measures were 3% and -0.51.
Taken in the same sequence, the figures for `CCO[C@@H](C)C(=O)N(C)CCCn1cccn1` were -4% and 0.82.
Taken in the same sequence, the figures for `CN(Cc1cccs1)C(=O)[C@@H]1CCCN1C(=O)c1cccs1` were -7% and 0.89.
Consider `O=C(NCc1ccnc(C(F)(F)F)c1)C1(C2CCC2)CCC1`, for which the “% Inhibition” value was -10% and the Z score stood at 1.67.
Take `Cc1nn2c(N3CCC(Cc4ccccc4)CC3)cc(C(C)C)nc2c1-c1ccccc1`: the “% Inhibition” value is -7% and the Z score was found to be 1.3.
As to `c1cc2ncc(-c3nc([C@@H]4CCCCO4)no3)cc2s1`, the “% Inhibition” value is listed as -6% and the Z score was 1.09.
For `CN(C)S(=O)(=O)c1ccc2c(c1)nnn2CCCC(=O)Nc1ccccc1Cl` the same measures were -13% and 1.88.
Consider `COc1ccc(NC(=O)C2CCN(c3nnc(-c4ccc(C)cc4)o3)CC2)c(OC)c1`, for which the “% Inhibition” value turned out to be 7% and the Z score is -1.05.
For the molecule `CC(C)c1nnc([C@H](C)NC(=O)c2ccc(=O)n(C)n2)o1`, the “% Inhibition” value is given as -5% and the Z score amounted to 0.71.
As for `Cc1n[nH]c(C)c1CNCc1cnc(C(C)C)nc1`, the “% Inhibition” value was -2% and the Z score worked out at 0.32.
Taken in the same sequence, the figures for `C[C@@H]1CN(C[C@@H]2CN(C(=O)c3ccsc3)C[C@@H]2CO)C[C@H](C)O1` were -14% and 2.47.
For `O=C1c2ccccc2C(=O)N1CCN1CCOC2CCCCC21` (configuration not stated) the same measures were -6% and 0.96.
On to `Cc1nn(C)c(C)c1Nc1nc2c(s1)c(C)nn2C`, for which the “% Inhibition” value is recorded as -10% and the Z score is on record as 1.28.
Taken in the same sequence, the figures for `CC[C@H]1CCCCN1c1ccc2nnnn2n1` were 35% and -4.72.
Taken in the same sequence, the figures for `CC(C)C[C@H](O)c1nc(C(C)(C)C)nn1CCO` were 2% and -0.31.
In the case of `C#CCN(C)S(=O)(=O)c1cc(OC)ccc1Br`, the “% Inhibition” value is -6% and the Z score was determined as 0.82.
For `CCc1nc(CN[C@@H](C)c2ccc(N3CCCC3=O)cc2)cs1` the same measures were 13% and -1.79.
For `O=C([C@@H]1CCCO1)N1CCN(c2ccc(-n3cncn3)nn2)CC1` the same measures were 7% and -0.9.
Taken in the same sequence, the figures for `CCC=C(C)C(=O)N(C)Cc1ccco1` were -10% and 1.95.
Regarding `CCN1CCN(C2CCN(c3ncc(F)c(OC)n3)CC2)CC1`, the “% Inhibition” value is 51% and the Z score was -7.32.

One may read the % Inhibition as the relative decrease from the control value, in per cent.
